The structures appear in SMILES notation. Screen size: about 50,000 compounds; about 800 (1.6%) showed an effect of 50% or more. Some of the results follow.

The record followed here is PubChem BioAssay AID1240 (Sanford-Burnham Center for Chemical Genomics, 2008).

The experiment addresses Bcl-2-like protein 10 (Homo sapiens) (UniProt Q9HD36). Description: TR3 peptide-Bcl-B binding displacers, biochemical primary FP assay, phenotype converters (AID 1240).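 Also: 0% = Bcl-B with tracer peptide and DMSO and 100% = tracer peptide lacking Bcl-B.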 The following applies: GST-Bcl-B / FITC-TR3 peptide fluorescence polarization; stronger effect = higher value; compound at 3.75 mg/L.
Sequence of UniProt Q9HD36 (Q9HD36 whole entry, looked up): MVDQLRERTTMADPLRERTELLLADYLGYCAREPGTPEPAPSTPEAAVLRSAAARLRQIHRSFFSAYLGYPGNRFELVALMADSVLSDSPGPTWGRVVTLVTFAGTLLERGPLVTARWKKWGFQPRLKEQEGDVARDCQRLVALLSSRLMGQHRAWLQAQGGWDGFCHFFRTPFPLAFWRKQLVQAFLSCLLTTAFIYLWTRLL
Take `Cc1oc(-c2ccccc2)cc1C(=O)NC(Cc1ccccc1)C(=O)O` (configuration not stated): the displacement worked out at 2.7%.

In the case of `COc1ccc(N2C(=O)NC(=O)/C(=C\c3cc(C)n(-c4cccc([N+](=O)[O-])c4)c3C)C2=O)cc1`, the displacement was 32.8%.

For `CN(C)c1cccc(NS(=O)(=O)c2ccccc2)c1`, the displacement was found to be 9.1%.

`O=C(/C=C/c1ccccc1)NNC(=O)c1cccnc1`: the displacement was -3.4%.

Regarding `C=COCCNC(=O)C(=O)Nc1ccccc1CC`, the displacement worked out at 3.1%.

On to `COc1cc(C=NN2CCN(c3ccccn3)CC2)cc(OC)c1OC(C)=O`, for which the displacement is -1.3%.

As to `CC(=O)CCc1c(C)[nH]c2ccc(Br)cc2c1=S`, the displacement is 0%.

As to `N#C/C(=C\c1ccc(-c2ccc([N+](=O)[O-])cc2Br)o1)C(N)=O`, the displacement is 7.3%.

As to `COc1cccc(C2CN(c3ccccc3)N=C2c2cccs2)c1OC` (configuration not stated), the displacement is 14.8%.

In the case of `Cc1onc(-c2c(Cl)cccc2Cl)c1C(=O)Nc1ccc2ccccc2c1`, the displacement is -3%.

Regarding `O=C1NC(=O)c2ccc3c4c(ccc1c24)CC3`, the displacement was determined as 55.5%.

With `CCOC(=O)N1CCN(C(=O)Nc2ccc3nc4c5ccccc5c5ccccc5c4nc3c2)CC1`, the displacement stood at 22.4%.

For the compound `C#CCN1C(=O)C(=O)c2cc(Br)ccc21`, the displacement is 5.4%.

In the case of `CCOC(=O)C1=C(C)NC2=C(C(=O)CCC2)C1c1cc2c(cc1Cl)OCO2` (configuration not stated), the displacement stood at 1.7%.

For `CC(C)Oc1ccc(Cc2cnc(N)nc2N)cc1`, the displacement was -7.1%.

Consider `Brc1cc(/C=N/Nc2ccccn2)oc1Br`, for which the displacement amounted to 6.8%.

Take `CC1=CC(C)C2COC(c3ccc4c(c3)OCO4)C1C2C` (configuration not stated): the displacement stood at 17.7%.

In the case of `O=c1c2c(nc3cc(-c4ccco4)[nH]n13)CCS2`, the displacement is 78.9%.

`Cc1cc(C)n(-c2ncnc3sc(C)c(C)c23)n1`: the displacement came to 0.1%.

`O=[N+]([O-])c1ccc(N2CCN(S(=O)(=O)c3ccc4ccccc4c3)CC2)cc1N1CCCC1`: the displacement was determined as 6.4%.

On to `CCOC(=O)C1=C(O)/C(=C/c2cccc(OC)c2O)N=C1C`, for which the displacement was found to be 38%.

Regarding `CCOC(=O)c1c(NC(=O)c2ccc(-c3ccc([N+](=O)[O-])cc3)o2)sc2c1CCCC2`, the displacement was -14.6%.

With `Nc1nc(-c2ccccc2)c(C(=O)c2ccccc2)s1`, the displacement turned out to be 1%.

As to `Cc1ccc(S(=O)(=O)NC(Cc2ccccc2)C(=O)Nc2nccs2)cc1` (configuration not stated), the displacement was 4.7%.

Regarding `Cn1nc(-c2ccc(Br)cc2)cc1N`, the displacement was found to be 16.6%.

Turning to `COc1ccc(/C=C2\SC(=S)N(c3ccc(F)cc3)C2=O)cc1OC`, the displacement worked out at 105%.

With `COc1cccc(/C=N/N2CCN(Cc3ccc(Cl)cc3)CC2)c1`, the displacement is 11.9%.

Turning to `Cc1cccc(/C(N)=N/OC(=O)COc2ccc(Cl)cc2)c1`, the displacement is 3.2%.

On to `c1ccc(Cn2c(-c3ccco3)nc3ccccc32)cc1`, for which the displacement was found to be 13.6%.

In the case of `O=C(CSc1nc2ccccc2n1Cc1ccccc1)N/N=C/c1ccccc1Br`, the displacement is -8.8%.

With `O=C(N/N=C/c1cccc(Br)c1)c1cnccn1`, the displacement was -7.5%.

For the compound `Cc1oc2c(cc(O)c3ccccc32)c1C(=O)c1ccc(Cl)cc1`, the displacement was 3%.

Take `O=C(O)c1ccccc1C(=O)c1ccc(Cl)c(N2C(=O)c3ccccc3C2=O)c1`: the displacement stood at 13.2%.

Consider `CCOC(=O)CC(NC(C)=O)c1ccc([N+](=O)[O-])cc1` (configuration not stated), for which the displacement worked out at 3.3%.

As to `O=C(O)c1cccc2c1NC(c1cccc3ccccc13)C1CC=CC21` (configuration not stated), the displacement is 25.1%.

On to `O=C1c2c(Cl)ccc(Cl)c2C(=O)N1c1ccccc1O`, for which the displacement amounted to 9.8%.

`COC(=O)c1cc(NC(=O)/C=C/c2ccc(Cl)cc2Cl)cc(C(=O)OC)c1`: the displacement is -3.3%.

Consider `CC12CC3CC(C)(C1)CC(C(=O)CCC(=O)O)(C3)C2`, for which the displacement is -11.6%.

For the compound `O=C(/C=C/c1ccco1)Nc1ccc(C(=O)Nc2nccs2)cc1`, the displacement is -61.5%.

Take `COc1cccc(CN2CCN(S(C)(=O)=O)CC2)c1`: the displacement was determined as 14.3%.

Take `O=C(COc1ccccc1[N+](=O)[O-])N/N=C/c1cccc(OC(=O)c2ccc3c(c2)OCO3)c1`: the displacement turned out to be 6.3%.

In the case of `CC(C)c1nnc(NC(=O)c2ccccc2)s1`, the displacement amounted to 3.9%.

As to `CC1=C(C(=O)OCCOc2ccccc2)C(c2coc3ccc(C)cc3c2=O)C2=C(CCCC2=O)N1` (configuration not stated), the displacement was found to be 12.4%.

In the case of `CC(C)C(=O)Nc1ccc(Nc2ccccc2)cc1`, the displacement is 10.1%.

Consider `CC1(C)c2ssc(=S)c2-c2ccccc2N1C(=O)c1ccccc1`, for which the displacement was 1.3%.

In the case of `COc1cc(C(=O)Nc2cc(Cl)ccc2C)cc(OC)c1OC`, the displacement is -7.3%.

As to `CC1=C(C(=O)Nc2ccc(C)cc2)C(c2ccccc2)NC(=S)N1` (configuration not stated), the displacement turned out to be 8.6%.

Turning to `COC(=O)CCC(=O)Nc1ccc(C)cc1C`, the displacement stood at 4.9%.

As to `O=C1c2ccccc2C(=O)N1CCCc1nc2ccccc2c(=O)n1-c1cccnc1`, the displacement was -6.1%.

`O=C(Nc1ccc(NS(=O)(=O)c2cccc(S(=O)(=O)c3ccccc3)c2)cc1)c1ccccc1`: the displacement is -8.7%.

As for `CCOC(=O)c1ccccc1NC(=O)c1sc(NC(=O)Cc2ccc(OC)cc2)c(C(=O)OCC)c1C`, the displacement came out at 5.4%.

Regarding `O=S(=O)(CCc1nnc(-c2ccccc2)o1)c1ccc2ccccc2c1`, the displacement was determined as 7.3%.

Regarding `NC1=NC(=O)C(Cc2cc(Cl)ccc2Cl)S1` (configuration not stated), the displacement amounted to 5.2%.

On to `COC(=O)c1c(C)oc2ccc(NS(=O)(=O)c3ccc4ccccc4c3)cc12`, for which the displacement was found to be 22.7%.

`C=CCOc1ccc(C2C3=C(CC(C)(C)CC3=O)OC3=C2C(=O)CC(C)(C)C3)cc1OCC`: the displacement was -1.4%.

`Nc1nonc1N/N=C/c1ccc2nsnc2c1`: the displacement was found to be 2.5%.

Turning to `Brc1ccc(C=NN2CCN(Cc3ccccc3)CC2)cc1`, the displacement is -17.6%.

As to `O=C(CSc1nc2ccccc2c(=O)n1-c1ccccc1)Nc1ccccc1`, the displacement came out at 9%.

In the case of `Cc1cccc(NC(=O)/C=C/c2cccc([N+](=O)[O-])c2)n1`, the displacement worked out at 15.9%.

On to `CCSc1sc(CC)cc1C(=O)O`, for which the displacement was 15.4%.

For the compound `COC(=O)c1c(-c2ccccc2Cl)csc1NC(=O)C1C2CCC(C2)C1C(=O)O` (configuration not stated), the displacement was -8.2%.

As for `CCCCNCCCCCOc1c(C)cccc1C`, the displacement was 6.3%.

As for `Cc1ccc(S(=O)(=O)NC(=O)OC(c2ccccc2)C(F)(F)F)cc1` (configuration not stated), the displacement is 8.8%.

In the case of `CCOc1ccccc1N1CCN(C(=O)c2sc3ccccc3c2Cl)CC1`, the displacement was -4.9%.

For `C=C(C)CNC(=S)Nc1sc2c(c1C(=O)OCC)CC(C)(C)OC2`, the displacement is -2.7%.

For `Cc1sc2nc(-c3ccc(N(C)C)c(Br)c3)[nH]c(=O)c2c1C`, the displacement is -11.6%.

For the compound `C(=N\N1CCN(c2ccccn2)CC1)/c1ccc2c(c1)OCO2`, the displacement was -9.5%.

Regarding `CCCOc1ccc(N2C(=O)CC(NCCNc3ccc([N+](=O)[O-])cn3)C2=O)cc1` (configuration not stated), the displacement is -1.7%.

With `CCN(CC)CCCCOc1ccc(Cl)cc1C`, the displacement is -7.4%.

On to `C/C(O)=C(\C(=S)NC(=O)c1ccccc1)C(N)=NC(=O)c1ccccc1`, for which the displacement was determined as 14.9%.

Turning to `COc1cccc(OC)c1C(=O)NCC12CC3CC(C1)CC(CNC(=O)c1c(OC)cccc1OC)(C3)C2`, the displacement was found to be 9.6%.

In the case of `CCN(CC)c1ccc(NC(=O)c2ccc(Br)cc2)cc1`, the displacement came to 9.2%.

Consider `CC(C)(C)C1=CC(=O)C=C(C(C)(C)C)C1=O`, for which the displacement amounted to 2.3%.

Regarding `COc1ccc(NC(=O)CN(c2ccc(C)c(Cl)c2)S(C)(=O)=O)cc1`, the displacement amounted to 3.4%.

As to `COC(=O)/C(=C/c1c[nH]c2ccccc12)N=Cc1ccccc1`, the displacement is 15.4%.

In the case of `CCn1c2ccccc2c2nnc(SCC(N)=O)nc21`, the displacement was -0.2%.

As to `O=C(O)CSCCCN1C(=O)c2cccc3cccc(c23)C1=O`, the displacement amounted to 8%.

For the compound `COc1cc([N+](=O)[O-])ccc1NC(=O)c1ccccc1`, the displacement stood at 14%.

`COc1ccc(C2CC(C(F)(F)F)n3nc(C(=O)NCCN4CCOCC4)cc3N2)cc1` (configuration not stated): the displacement was -1.2%.

For `COc1ccc(/C=C/C(=O)Nc2ccc3c(c2)oc2ccccc23)cc1`, the displacement amounted to 0.5%.

In the case of `O=C(COc1ccccc1)NNc1c2ccccc2nc2ccccc12`, the displacement was -3.6%.

Consider `CCN(CC)c1ccc(/C=C2\SC(=S)N(CCc3ccccc3)C2=O)cc1`, for which the displacement turned out to be 86%.

In the case of `COc1ccc(NC(=O)CSc2nc3ccc(NC(=O)c4ccccc4)cc3s2)cc1`, the displacement amounted to 22.7%.

Regarding `C=CCNC(=O)COc1ccc(Br)cc1`, the displacement was 4.7%.

Consider `CCOc1ccc(NC(=O)c2ccccc2NC(=O)c2ccccc2Cl)cc1`, for which the displacement came out at 13.8%.

For the compound `O=C(COc1ccc2ccccc2c1)Nc1ccc(Cl)c(Cl)c1`, the displacement was -1.7%.

As for `Cc1cccc(OCC(=O)N/N=C/c2cc(Br)cc(I)c2O)c1`, the displacement was 4.9%.

In the case of `CCC/C(O)=C1\C(=O)CC(C)(C)CC1=Nc1ccccc1C`, the displacement turned out to be 3.7%.

For `Cc1occc1C(=O)Nc1ccccc1C(=O)O`, the displacement was -0.6%.

As to `Cn1cc(C(=O)N/N=C/c2ccc(Br)cc2)ccc1=O`, the displacement is -4.2%.

Consider `COc1ccc(C2CC(=O)C3=C(C2)Nc2ccccc2NC3c2coc3ccc(C)cc3c2=O)cc1` (configuration not stated), for which the displacement was found to be 7.6%.

On to `CC1=C(C(=O)OC2CCCCCC2)C(c2ccccc2)NC(=O)N1` (configuration not stated), for which the displacement is -7.2%.

For the compound `Clc1ccc(Nc2nc(-c3cccs3)cs2)cc1`, the displacement was -1.2%.

Turning to `COc1ccc(C(=O)Nc2ccc(C)c(Cl)c2)cc1OC`, the displacement was determined as 13.5%.

Regarding `COc1ccc(Cc2nc3ccccc3n2CC(=O)NN)cc1OC`, the displacement is -10.3%.

Regarding `NC(=O)NC(c1ccc(Cl)cc1)c1ccccc1Cl` (configuration not stated), the displacement is -10.8%.

For `CCOc1ccc(N=Cc2ccc(OC(C)C)c(OC)c2)cc1`, the displacement turned out to be 4.4%.

In the case of `CCC1CCc2c(sc3nc(SCC(=O)NCCc4ccccc4)n(-c4ccccc4)c(=O)c23)C1` (configuration not stated), the displacement came out at 0%.

Take `CCc1c(C)sc(NC(=O)c2ccc(Cl)cc2)c1C(N)=O`: the displacement is 26.1%.

`CCOc1ccc(-c2cc(C(=O)NC3CCCC3)c3ccccc3n2)cc1`: the displacement was -12.3%.

As for `COc1ccccc1N1CCN(/N=C/c2ccc(-c3ccccc3)cc2)CC1`, the displacement is -8.7%.

As to `O=C(c1ccccc1F)N1CCN(c2ccc([N+](=O)[O-])c(NC3CC3)c2)CC1`, the displacement came out at 6.1%.

In the case of `Cc1ccc(CN2CCN(/N=C/c3ccccc3C)CC2)cc1`, the displacement was determined as 11.6%.

For `CCn1c2ccccc2c2cc(CN3CCN(Cc4ccccc4OC)CC3)ccc21`, the displacement worked out at 1.8%.

Take `COc1ccc2c(Cl)c(C(=O)Nc3ccc(Cl)cc3)sc2c1`: the displacement came out at 2.4%.

`CC1=NN(c2ccccc2)C(=O)/C1=C/c1ccc(OC2CSC2)cc1`: the displacement is 1.4%.

As to `O=[N+]([O-])c1ccc(N2CCN(S(=O)(=O)c3ccc(F)cc3)CC2)cc1`, the displacement worked out at 11.9%.

On to `CCCC(=O)Nc1ccc2c(c1)Cc1ccccc1-2`, for which the displacement is -1.1%.

`Cc1ccc(-c2nc3ccccc3o2)cc1NC(=O)c1cc(Cl)ccc1Cl`: the displacement was found to be 6.4%.

Turning to `CC(=O)N1CCN(c2ccc(NC(=O)c3cc(I)ccc3Cl)cc2)CC1`, the displacement was 13.4%.

With `COc1ccc(C2CC(=O)NC(SCC(=O)Nc3ccc(Br)cc3)=C2C#N)cc1OCc1ccccc1` (configuration not stated), the displacement is 2.5%.

With `COc1cc(C(=O)NC(NC(=S)Nc2cccc(Br)c2)C(Cl)(Cl)Cl)cc(OC)c1OC` (configuration not stated), the displacement was -16.6%.
